The values that follow come from patent US20120178908A1 (Novo Nordisk, published 2012).

Test [1] addresses T1, TLT-1 18-188 relipidated in 20:80 PS:PC vesicles (human, UniProt Q86YW5 18-188).
T1 sequence: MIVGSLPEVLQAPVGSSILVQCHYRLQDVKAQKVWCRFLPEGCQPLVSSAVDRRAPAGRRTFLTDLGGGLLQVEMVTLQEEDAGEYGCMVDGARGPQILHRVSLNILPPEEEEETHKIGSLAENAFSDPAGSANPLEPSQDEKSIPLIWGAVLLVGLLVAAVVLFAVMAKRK
The test is described as follows: cell-based or functional assay.

Test [2] addresses T2, TLT-1 receptor on the surface of activated human platelets (human, UniProt Q86YW5 16-311).
T2 sequence: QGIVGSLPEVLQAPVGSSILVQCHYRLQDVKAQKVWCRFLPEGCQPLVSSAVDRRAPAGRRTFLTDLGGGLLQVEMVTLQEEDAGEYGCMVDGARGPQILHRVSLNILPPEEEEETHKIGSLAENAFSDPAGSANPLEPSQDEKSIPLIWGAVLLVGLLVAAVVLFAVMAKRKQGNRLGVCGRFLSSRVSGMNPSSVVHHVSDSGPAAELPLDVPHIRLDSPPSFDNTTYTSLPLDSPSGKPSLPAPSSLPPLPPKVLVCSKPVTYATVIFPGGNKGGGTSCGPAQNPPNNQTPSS
The test is described as follows: cell-based or functional assay.

B1: mAb 0012-(HC-L1-TF)2;LC2 (other)
heavy chain-linker-TF: EVKLLESGGGLVQPGGSLKLSCAASGFDFSRYWMTWVRQAPGKGLEWIGEINPDSSTINYTPSLKDKFIISRDNAKNTLYLQMSEVRSEDTALYYCASGVFTSWGQGTLVTVSAASTKGPSVFPLAPCSRSTSESTAALGCLVKDYFPEPVTVSWNSGALTSGVHTFPAVLQSSGLYSLSSVVTVPSSSLGTKTYTCNVDHKPSNTKVDKRV[human IgG4 Fc with S228P (EU numbers) omitted]GSSGTTNTVAAYNLTWKSTNFKTILEWEPKPVNQVYTVQISTKSGDWKSKCFYTTDTECDLTDEIVKDVKQTYLARVFSYPAGNVESTGSAGEPLYENSPEFTPYLETNLGQPTIQSFEQVGTKVNVTVEDERTLVRRNNTFLSLRDVFGKDLIYTLYYWKSSSSGKKTAKTNTNEFLIDVDKGENYCFSVQAVIPSRTVNRKSTDSPVECMGQEKGEFRE
light chain: DVVMTQTPLSLPVSLGDQASISCRSSQSLVHRNGNTYFHWCLQKPGQSPKLLIYKVSNRFSGVPDRFSGSGSGTDFTLKISRVEAEDLGVYFCSQSTHVPYTFGGGTKLEIKRTVAAPSVFIFPPSDEQLKSGTASVVCLLNNFYPREAKVQWKVDNALQSGNSQESVTEQDSKDSTYSLSSTLTLSKADYEKHKVYACEVTHQGLSSPVTKSFNRGEC
For the molecule B1, in test [1], the “FVII-mediated FXa generation % Activity lipidated TLT-1” value was 62% and the “FVIIa-mediated FXa generation % Activity lipidated TLT-1” value is 91%. In test [2], the “FVII-mediated FXa generation % Activity activated plts (n 1)” value was determined as 23% and the “FVIIa-mediated FXa generation % Activity activated plts (n 1)” value turned out to be 19%.

B2: mAb 0012-(TF-L4b-HC)2;LC2 (other)
TF-linker-heavy chain: SGTTNTVAAYNLTWKSTNFKTILEWEPKPVNQVYTVQISTKSGDWKSKCFYTTDTECDLTDEIVKDVKQTYLARVFSYPAGNVESTGSAGEPLYENSPEFTPYLETNLGQPTIQSFEQVGTKVNVTVEDERTLVRRNNTFLSLRDVFGKDLIYTLYYWKSSSSGKKTAKTNTNEFLIDVDKGENYCFSVQAVIPSRTVNRKSTDSPVECMGQEKGEFREGGGGSGGGGSGGGGSGSMDFGLIFFIVALLKGVQCEVKLLESGGGLVQPGGSLKLSCAASGFDFSRYWMTWVRQAPGKGLEWIGEINPDSSTINYTPSLKDKFIISRDNAKNTLYLQMSEVRSEDTALYYCASGVFTSWGQGTLVTVSAASTKGPSVFPLAPCSRSTSESTAALGCLVKDYFPEPVTVSWNSGALTSGVHTFPAVLQSSGLYSLSSVVTVPSSSLGTKTYTCNVDHKPSNTKVDKRV[human IgG4 Fc with S228P (EU numbers) omitted]
light chain: DVVMTQTPLSLPVSLGDQASISCRSSQSLVHRNGNTYFHWCLQKPGQSPKLLIYKVSNRFSGVPDRFSGSGSGTDFTLKISRVEAEDLGVYFCSQSTHVPYTFGGGTKLEIKRTVAAPSVFIFPPSDEQLKSGTASVVCLLNNFYPREAKVQWKVDNALQSGNSQESVTEQDSKDSTYSLSSTLTLSKADYEKHKVYACEVTHQGLSSPVTKSFNRGEC
As for B2, in test [1], the “FVII-mediated FXa generation % Activity lipidated TLT-1” value turned out to be 20% and the “FVIIa-mediated FXa generation % Activity lipidated TLT-1” value was found to be 42%. Also, the “FVIIa-mediated FXa generation % Activity activated plts (n 2)” value in test [2] was found to be 11%.

B3: mAb 0012-(HC-L3-TF)2;LC2 (other)
heavy chain-linker-TF: EVKLLESGGGLVQPGGSLKLSCAASGFDFSRYWMTWVRQAPGKGLEWIGEINPDSSTINYTPSLKDKFIISRDNAKNTLYLQMSEVRSEDTALYYCASGVFTSWGQGTLVTVSAASTKGPSVFPLAPCSRSTSESTAALGCLVKDYFPEPVTVSWNSGALTSGVHTFPAVLQSSGLYSLSSVVTVPSSSLGTKTYTCNVDHKPSNTKVDKRV[human IgG4 Fc with S228P (EU numbers) omitted]GSGGGGSGGGGSSGTTNTVAAYNLTWKSTNFKTILEWEPKPVNQVYTVQISTKSGDWKSKCFYTTDTECDLTDEIVKDVKQTYLARVFSYPAGNVESTGSAGEPLYENSPEFTPYLETNLGQPTIQSFEQVGTKVNVTVEDERTLVRRNNTFLSLRDVFGKDLIYTLYYWKSSSSGKKTAKTNTNEFLIDVDKGENYCFSVQAVIPSRTVNRKSTDSPVECMGQEKGEFRE
light chain: DVVMTQTPLSLPVSLGDQASISCRSSQSLVHRNGNTYFHWCLQKPGQSPKLLIYKVSNRFSGVPDRFSGSGSGTDFTLKISRVEAEDLGVYFCSQSTHVPYTFGGGTKLEIKRTVAAPSVFIFPPSDEQLKSGTASVVCLLNNFYPREAKVQWKVDNALQSGNSQESVTEQDSKDSTYSLSSTLTLSKADYEKHKVYACEVTHQGLSSPVTKSFNRGEC
As for B3, in test [1], the “FVII-mediated FXa generation % Activity lipidated TLT-1” value amounted to 70% and the “FVIIa-mediated FXa generation % Activity lipidated TLT-1” value was found to be 100%. Also, in test [2], the “FVII-mediated FXa generation % Activity activated plts (n 1)” value came out at 23% and the “FVIIa-mediated FXa generation % Activity activated plts (n 1)” value was determined as 23%.

B4: mAb 0012-(HC-L2-TF)2;LC2 (other)
heavy chain-linker-TF: EVKLLESGGGLVQPGGSLKLSCAASGFDFSRYWMTWVRQAPGKGLEWIGEINPDSSTINYTPSLKDKFIISRDNAKNTLYLQMSEVRSEDTALYYCASGVFTSWGQGTLVTVSAASTKGPSVFPLAPCSRSTSESTAALGCLVKDYFPEPVTVSWNSGALTSGVHTFPAVLQSSGLYSLSSVVTVPSSSLGTKTYTCNVDHKPSNTKVDKRV[human IgG4 Fc with S228P (EU numbers) omitted]GSGGGGSSGTTNTVAAYNLTWKSTNFKTILEWEPKPVNQVYTVQISTKSGDWKSKCFYTTDTECDLTDEIVKDVKQTYLARVFSYPAGNVESTGSAGEPLYENSPEFTPYLETNLGQPTIQSFEQVGTKVNVTVEDERTLVRRNNTFLSLRDVFGKDLIYTLYYWKSSSSGKKTAKTNTNEFLIDVDKGENYCFSVQAVIPSRTVNRKSTDSPVECMGQEKGEFRE
light chain: DVVMTQTPLSLPVSLGDQASISCRSSQSLVHRNGNTYFHWCLQKPGQSPKLLIYKVSNRFSGVPDRFSGSGSGTDFTLKISRVEAEDLGVYFCSQSTHVPYTFGGGTKLEIKRTVAAPSVFIFPPSDEQLKSGTASVVCLLNNFYPREAKVQWKVDNALQSGNSQESVTEQDSKDSTYSLSSTLTLSKADYEKHKVYACEVTHQGLSSPVTKSFNRGEC
For B4, in test [1], the “FVII-mediated FXa generation % Activity lipidated TLT-1” value was found to be 68% and the “FVIIa-mediated FXa generation % Activity lipidated TLT-1” value came out at 92%. Also, in test [2], the “FVII-mediated FXa generation % Activity activated plts (n 1)” value came out at 24% and the “FVIIa-mediated FXa generation % Activity activated plts (n 1)” value is 21%.

B5: mAb 0012-(HC-L4a-TF)2;(LC-HPC4)2 (other)
heavy chain-linker-TF: EVKLLESGGGLVQPGGSLKLSCAASGFDFSRYWMTWVRQAPGKGLEWIGEINPDSSTINYTPSLKDKFIISRDNAKNTLYLQMSEVRSEDTALYYCASGVFTSWGQGTLVTVSAASTKGPSVFPLAPCSRSTSESTAALGCLVKDYFPEPVTVSWNSGALTSGVHTFPAVLQSSGLYSLSSVVTVPSSSLGTKTYTCNVDHKPSNTKVDKRV[human IgG4 Fc with S228P (EU numbers) omitted]GSGGGGSGGGGSGGGGSSGTTNTVAAYNLTWKSTNFKTILEWEPKPVNQVYTVQISTKSGDWKSKCFYTTDTECDLTDEIVKDVKQTYLARVFSYPAGNVESTGSAGEPLYENSPEFTPYLETNLGQPTIQSFEQVGTKVNVTVEDERTLVRRNNTFLSLRDVFGKDLIYTLYYWKSSSSGKKTAKTNTNEFLIDVDKGENYCFSVQAVIPSRTVNRKSTDSPVECMGQEKGEFRE
light chain-HPC4: DVVMTQTPLSLPVSLGDQASISCRSSQSLVHRNGNTYFHWCLQKPGQSPKLLIYKVSNRFSGVPDRFSGSGSGTDFTLKISRVEAEDLGVYFCSQSTHVPYTFGGGTKLEIKRTVAAPSVFIFPPSDEQLKSGTASVVCLLNNFYPREAKVQWKVDNALQSGNSQESVTEQDSKDSTYSLSSTLTLSKADYEKHKVYACEVTHQGLSSPVTKSFNRGECEDQVDPRLIDGK
B5: in test [1], the “FVII-mediated FXa generation % Activity lipidated TLT-1” value amounted to 68% and the “FVIIa-mediated FXa generation % Activity lipidated TLT-1” value came to 91%.

B6: mAb 0012-(LC-L4a-TF)2;HC2 (other)
light chain-linker-TF: DVVMTQTPLSLPVSLGDQASISCRSSQSLVHRNGNTYFHWCLQKPGQSPKLLIYKVSNRFSGVPDRFSGSGSGTDFTLKISRVEAEDLGVYFCSQSTHVPYTFGGGTKLEIKRTVAAPSVFIFPPSDEQLKSGTASVVCLLNNFYPREAKVQWKVDNALQSGNSQESVTEQDSKDSTYSLSSTLTLSKADYEKHKVYACEVTHQGLSSPVTKSFNRGECGSGGGGSGGGGSGGGGSSGTTNTVAAYNLTWKSTNFKTILEWEPKPVNQVYTVQISTKSGDWKSKCFYTTDTECDLTDEIVKDVKQTYLARVFSYPAGNVESTGSAGEPLYENSPEFTPYLETNLGQPTIQSFEQVGTKVNVTVEDERTLVRRNNTFLSLRDVFGKDLIYTLYYWKSSSSGKKTAKTNTNEFLIDVDKGENYCFSVQAVIPSRTVNRKSTDSPVECMGQEKGEFRE
heavy chain: EVKLLESGGGLVQPGGSLKLSCAASGFDFSRYWMTWVRQAPGKGLEWIGEINPDSSTINYTPSLKDKFIISRDNAKNTLYLQMSEVRSEDTALYYCASGVFTSWGQGTLVTVSAASTKGPSVFPLAPCSRSTSESTAALGCLVKDYFPEPVTVSWNSGALTSGVHTFPAVLQSSGLYSLSSVVTVPSSSLGTKTYTCNVDHKPSNTKVDKRV[human IgG4 Fc with S228P (EU numbers) omitted]
As for B6, in test [1], the “FVII-mediated FXa generation % Activity lipidated TLT-1” value was found to be 59% and the “FVIIa-mediated FXa generation % Activity lipidated TLT-1” value stood at 85%.
